Tests used:
Human FGFR4 ECD [1] = target: T1, Human FGFR4 ECD (human, UniProt P22455 22-369); assay: SPR (Biacore)
T1 construct: whole entry is the construct; also called FGFR4 D1-D3 construct
Method: (§1) Subsequently, 0.078-100 nM of FGFR receptors, diluted in a 2-fold series, were injected at a flow rate of 80 μl/min for 7 min over both reference and test flow cells. Dissociation of the binding was followed for 10 min using HBS-EP⁺ supplemented with 0.5 mg/ml of BSA and 10 μg/ml heparin as running buffer. After each injection cycle, the chip surface was regenerated with 10 mM glycine, pH 2.0 at 60 μl/min for 70 s.

Mouse FGFR4 = target: T2, Mouse FGFR4 (mouse, UniProt Q03142 17-366); assay: SPR (Biacore)
Mouse FGFR4, sequence (Q03142 17-366 limits assumed): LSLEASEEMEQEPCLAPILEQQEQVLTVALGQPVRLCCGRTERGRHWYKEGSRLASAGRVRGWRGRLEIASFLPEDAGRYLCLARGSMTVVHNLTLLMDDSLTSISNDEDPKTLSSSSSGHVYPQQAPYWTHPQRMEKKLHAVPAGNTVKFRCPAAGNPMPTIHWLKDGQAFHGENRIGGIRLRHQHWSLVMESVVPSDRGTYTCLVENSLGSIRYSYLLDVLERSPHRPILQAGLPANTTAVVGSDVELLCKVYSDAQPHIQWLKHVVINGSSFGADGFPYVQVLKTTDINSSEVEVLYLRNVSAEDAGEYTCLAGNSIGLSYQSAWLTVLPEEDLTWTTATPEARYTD
T2 construct: Recombinant tagged ECD
Method: as §1

Rat FGFR4 = target: T3, Rat FGFR4 (rat, UniProt Q498D6 17-367); assay: SPR (Biacore)
Rat FGFR4, sequence (Q498D6 17-367 limits assumed): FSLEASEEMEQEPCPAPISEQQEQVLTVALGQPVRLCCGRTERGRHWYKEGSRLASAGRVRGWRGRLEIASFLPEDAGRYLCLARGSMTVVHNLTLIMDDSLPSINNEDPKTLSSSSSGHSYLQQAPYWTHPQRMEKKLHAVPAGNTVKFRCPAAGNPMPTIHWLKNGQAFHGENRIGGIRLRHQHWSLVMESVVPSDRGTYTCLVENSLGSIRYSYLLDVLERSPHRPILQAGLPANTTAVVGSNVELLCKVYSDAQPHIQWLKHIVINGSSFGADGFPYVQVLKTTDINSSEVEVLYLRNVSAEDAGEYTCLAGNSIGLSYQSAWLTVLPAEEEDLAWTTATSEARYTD
T3 construct: Recombinant tagged ECD
Method: as §1

Cynomolgus monkey FGFR4 = target: T4, Cynomolgus monkey FGFR4 (cynomolgus monkey); assay: SPR (Biacore)
T4 chain: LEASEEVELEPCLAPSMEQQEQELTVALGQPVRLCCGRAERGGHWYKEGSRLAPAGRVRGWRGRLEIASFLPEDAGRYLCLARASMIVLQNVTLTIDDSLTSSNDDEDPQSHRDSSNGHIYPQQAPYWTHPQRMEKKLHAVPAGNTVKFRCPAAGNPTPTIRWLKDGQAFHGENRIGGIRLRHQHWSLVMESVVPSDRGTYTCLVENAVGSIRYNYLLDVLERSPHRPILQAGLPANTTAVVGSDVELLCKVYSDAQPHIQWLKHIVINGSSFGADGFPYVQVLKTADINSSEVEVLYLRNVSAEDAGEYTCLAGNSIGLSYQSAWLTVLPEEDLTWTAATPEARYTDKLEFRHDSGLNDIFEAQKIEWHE
Method: as §1

Human FGFR4 ECD [2] = target: T1, Human FGFR4 ECD; assay: SPR (Biacore), antibody captured, FGFR ECD as analyte
Method: The immobilization level and analyte interactions were measured by response unit (RU).
as §1

| Binder | Kd (Human FGFR4 ECD [1]) | Kd (Mouse FGFR4) | Kd (Rat FGFR4) | Kd (Cynomolgus monkey FGFR4) | Kd (Human FGFR4 ECD [2]) |
| --- | --- | --- | --- | --- | --- |
| mAb 12425 (antibody, human IgG1, kappa, also called MOR12425) heavy: QVQLLESGGGLVQPGGSLRLSCAASGFTFSDYAMSWVRQAPGKGLEWVSVIEGDGSYTHYADSVKGRFTISRDNSKNTLYLQMNSLRAEDTAVYYCAREKTYSSAFDYWGQGTLVTVSSASTKGPSVFPLAPSSKSTSGGTAALGCLVKDYFPEPVTVSWNSGALTSGVHTFPAVLQSSGLYSLSSVVTVPSSSLGTQTYICNVNHKPSNTKVDKRV[in this place human IgG1 Fc] light: DIQMTQSPSSLSASVGDRVTITCRASQDISSDLNWYQQKPGKAPKLLIYDASNLQSGVPSRFSGSGSGTDFTLTISSLQPEDFAVYYCQQHYSPSHTFGQGTKVEIKRTVAAPSVFIFPPSDEQLKSGTASVVCLLNNFYPREAKVQWKVDNALQSGNSQESVTEQDSKDSTYSLSSTLTLSKADYEKHKVYACEVTHQGLSSPVTKSFNRGEC | 4 nM | 3.6 nM | 5.2 nM | 2.3 nM | 3.9 nM |
| 12425-MCC-DM1 (antibody, human IgG1, kappa, DM1 on lysine residues via MCC linker (sites not specified)) heavy: QVQLLESGGGLVQPGGSLRLSCAASGFTFSDYAMSWVRQAPGKGLEWVSVIEGDGSYTHYADSVKGRFTISRDNSKNTLYLQMNSLRAEDTAVYYCAREKTYSSAFDYWGQGTLVTVSSASTKGPSVFPLAPSSKSTSGGTAALGCLVKDYFPEPVTVSWNSGALTSGVHTFPAVLQSSGLYSLSSVVTVPSSSLGTQTYICNVNHKPSNTKVDKRV[in this place human IgG1 Fc] light: DIQMTQSPSSLSASVGDRVTITCRASQDISSDLNWYQQKPGKAPKLLIYDASNLQSGVPSRFSGSGSGTDFTLTISSLQPEDFAVYYCQQHYSPSHTFGQGTKVEIKRTVAAPSVFIFPPSDEQLKSGTASVVCLLNNFYPREAKVQWKVDNALQSGNSQESVTEQDSKDSTYSLSSTLTLSKADYEKHKVYACEVTHQGLSSPVTKSFNRGEC | 4.6 nM | 2.2 nM | 4.2 nM | 2.1 nM | – |
